# Measurements published in PubChem BioAssay (NCATS).
# This list was built around the results that the source calls inconclusive (neither active nor inactive); the mix of calls is not that of the screen. For part of these data: No potency is given beside an inconclusive call; the fits are too rough. Calls of active or inactive are those of the source. Unless noted, the call rests on the fitted dose curve; in most records, active means well fitted curve in the direction sought with a large enough effect; inconclusive means small, poorly fitted or top-dose-only effect, or another doubt; inactive means no such curve, though single readings can be large; an effect the other way counts as inactive or inconclusive.
# How the values were obtained:
# [1] = NS1 protein of Zika virus - qHTS assay to identify small molecule inhibitors in human HEK 293 cells (AID 1347053); further: nearly all actives have a fitted effect of over 55% in size
# Summary of the method: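 Readout was TR-FRET using paired anti-NS1 antibodies after 24 h infection of HEK 293 cells with ZIKV MR766 (MOI = 0.5). Compound preceded virus by 1 h; reduced signal reflects lower NS1 expression.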
# [2] = qHTS of pediatric cancer cell lines to identify multiple opportunities for drug repurposing: Primary screen for TC32 cells (AID 1347089); further: nearly all actives have a fitted effect of over 60% in size
# Summary of the method: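 TC32 cells, 500-1,000/well in growth medium, compound-treated 48 h at 37 °C; viability from CellTiter-Glo luminescence. Primary screen: MIPE 11-point (0.78 nM–46 µM final), NPC 8-point (0.59 nM–46 µM final); confirmatory at 11-point dilutions.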
# [3] = qHTS of pediatric cancer cell lines to identify multiple opportunities for drug repurposing: Primary screen for A673 cells (AID 1347092); details: A673 Ewing sarcoma viability, CellTiter-Glo ATP luminescence, 48 h; activity change, negative = cytotoxic: at 46 µM (top of the series); further: nearly all actives have a fitted effect of over 45% in size
# Summary of the method: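 A673 cells (500-1,000 cells/well) were treated 48 hours at 37 degrees C with compounds at 11-point (0.78 nM to 46 µM) or 8-point (0.59 nM to 46 µM) dilutions. Viability read by CellTiter-Glo luminescence; concentration-response curves fitted.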
# [4] = qHTS of pediatric cancer cell lines to identify multiple opportunities for drug repurposing: Primary screen for OHS-50 cells (AID 1347103); details: OHS-50 osteosarcoma viability, CellTiter-Glo luminescence, 48 h; activity change, negative = cytotoxic: at 57.3 µM (top of the series); further: nearly all actives have a fitted effect of over 40% in size
# Summary of the method: (§1)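 Cells (500-1,000/well) rested 5 h, then received compounds for 48 h; metabolically active cells were measured by CellTiter-Glo luminescence. Final concentrations spanned up to 46 µM (MIPE, 11-point) or 0.59 nM-46 µM (NPC, 8-point) in primary screens, 11-point in follow-ups.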
# [5] = qHTS of pediatric cancer cell lines to identify multiple opportunities for drug repurposing: Primary screen for Rh30 cells (AID 1347107); further: nearly all actives have a fitted effect of over 75% in size
# Summary of the method: as §1
# [6] = test system: Zika virus NS2B-NS3 protease; test: Primary screen GU AMC qHTS for Zika virus inhibitors (AID 1347154); further: potency means the concentration at half of the fitted maximal effect; nearly all actives have a fitted effect of over 70% in size
# Summary of the method: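 Fluorogenic AMC-substrate cleavage by noncovalent NS2B-NS3 protease complex (25 nM, pH 8.0 Tris buffer with Tween 20) followed for 15 minutes at room temperature (~20% conversion). Percent inhibition from ex340/em450 signal change, fitted by 4-parameter Hill equation.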
# [7] = target: Nuclear receptor subfamily 1 group I member 3 (Homo sapiens) (UniProt Q14994); test: Primary qHTS for antagonist of constitutive androstane receptor (CAR) against the NCATS DSHEA and TCM libraries (AID 1794836); further: potency means the concentration at half of the fitted maximal effect
# Summary of the method: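 Antagonist mode: CAR reporter luminescence (ONE-Glo) in HepG2-CYP2B6-hCAR cells stimulated with 48 uM CITCO (final) over 24 h at 37 C, compounds titrated; viability read first by CellTiter-Fluor fluorescence.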
# [8] = target: Cytochrome P450 2C19 (Homo sapiens) (UniProt P33261); test: qHTS for inhibitors of CYP2C19 against the NCATS DSHEA and TCM libraries (AID 1919974);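 further: luminescence from luciferin released by CYP2C19 oxidation of a pro-luciferin substrate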
# Summary of the method: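 Concentration-response screening with isoform-matched pro-luciferin substrates. The CYP reaction was initiated by NADPH regenerating solution and ran 30-45 min in darkness at room temperature.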
# CASKI = test: Primary qHTS to identify gynecologic anti-cancer compounds using libraries of approved drugs and bioactive compounds (AID 1345084); details: Gynecologic cancer cell panel viability, ATPlite luminescence, 48 h; series mostly up to 57.5 µM; further: nearly all actives have a fitted effect of over 55% in size
# Summary of the method: (§2)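 Cytotoxicity screen measuring ATP content by luciferase luminescence. Each compound is applied at five concentrations for 48 h at 37 C with 5% CO2.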
# [9] = qHTS profiling for inhibitors of Plasmodium falciparum proliferation (AID 504749); further: nearly all actives have a fitted effect of over 60% in size; further: potency means the concentration at half of the fitted maximal effect; details: P. falciparum in erythrocytes, SYBR Green DNA, 72 h; Potency: parasite line B unless noted; series mostly up to 28.7 µM
# Summary of the method: (§3)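 SYBR Green fluorescence of parasite DNA, read after lysis and overnight dark incubation, measured growth over 72 h in erythrocyte culture at 0.3% parasitemia and 2.5% hematocrit. Data normalised to DMSO and 0.29 uM artemisinin, with plate-drift correction.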
# CP297 = test: as above; details: P. falciparum in erythrocytes, SYBR Green DNA, 72 h; series mostly up to 28.7 µM
# Summary of the method: as §3
# CP335 = test: as above; details: P. falciparum in erythrocytes, SYBR Green DNA, 72 h; series mostly up to 28.7 µM
# Summary of the method: as §3
# DFO2036 = test: as above; details: P. falciparum in erythrocytes, SYBR Green DNA, 72 h; series mostly up to 28.7 µM
# Summary of the method: as §3
# [10] = target: Calcium and integrin-binding protein 1 (Homo sapiens) (UniProt Q99828); test: Confirmatory qHTS for Identification of Calcium Integrin Binding Protein 1 (CIB1) Competitor (AID 1508617); further: nearly all actives have a fitted effect of over 65% in size
# Summary of the method: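 FP competition: CIB1-GST (1 uM final) in 5 mM HEPES pH 7.4, 125 mM NaCl, 5 mM CaCl2, 0.01% Tween20 preincubated 15 min RT with compounds (up to 114 uM), then FITC-alphaIIb peptide (100 nM), 15 min RT; Ex 480/Em 540.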
# [11] = target: Calcium and integrin-binding protein 1 (Homo sapiens) (UniProt Q99828); test: Primary qHTS for Identification of Calcium Integrin Binding Protein 1 (CIB1) Competitor (AID 1508620); further: potency means the concentration at half of the fitted maximal effect
# Summary of the method: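 CIB1-GST (1 uM final) and compound incubated 15 min at room temperature before adding FITC-alphaIIb peptide tracer (100 nM final). Competition for binding read by fluorescence polarization (ex 480, em 540) after another 15 min at room temperature.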
# [12] = Primary qHTS for inhibitors of nuclear receptor binding SET domain protein 2 (NSD2) in an RCH-ACV wild type WT cells (2C) (AID 1645877); details: activity change, negative = cell killing: at 44.9 µM (top of the series) unless noted; further: nearly all actives have a fitted effect of over 70% in size; further: potency means the concentration at half of the fitted maximal effect
# [13] = Primary fluorescence-based thiol-reactive (MSTI) qHTS assay for identification of artifact compounds. (AID 1845221);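 further: potency means the concentration at half of the fitted maximal effect; thiol-reactive compounds lower the probe fluorescence signal; nearly all actives have a fitted effect of over 65% in size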
# Summary of the method: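 Curve-fitted percent inhibition (4-parameter Hill) derived from fluorescence, Ex 525/Em 598 nm, scaled with Acetyl-MSTI and MSTI; 1 h incubation at room temperature.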
# PA-1 = test: Primary qHTS to identify gynecologic anti-cancer compounds using libraries of approved drugs and bioactive compounds (AID 1345084); details: Gynecologic cancer cell panel viability, ATPlite luminescence, 48 h; series mostly up to 57.5 µM; further: nearly all actives have a fitted effect of over 55% in size
# Summary of the method: as §2
# Tov-21-G = test: as above; details: Gynecologic cancer cell panel viability, ATPlite luminescence, 48 h; series mostly up to 57.5 µM
# Summary of the method: as §2
# [14] = test system: Zika virus NS2B-NS3 protease (unlinked complex); test: Primary screen GU Rhodamine qHTS for Zika virus inhibitors: Unlinked NS2B-NS3 protease assay (AID 1347159); details: Recombinant ZIKV NS2B-NS3 protease, Rhodamine110 substrate fluorescence; series mostly up to 107 µM; further: potency means the concentration at half of the fitted maximal effect; nearly all actives have a fitted effect of over 60% in size
# Summary of the method: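 In dose–response format, inhibition of unlinked protease (25 nM) was measured with 1.5 microM bis-peptide Rhodamine110 substrate. Aprotinin served as the intraplate control.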
# [15] = target: Cytochrome P450 2D6 (Homo sapiens) (UniProt P10635); test: Cytochrome P450 family 2 subfamily D member 6 (CYP2D6) small molecule antagonists: luciferase biochemical (cell-free) qHTS assay (AID 1645840; active means well fitted curve in the direction sought with a large enough effect in the repeat runs; inconclusive means weak or mixed curves; inactive means no such curve, though single readings can be large; an effect the other way counts as inactive or inconclusive)
# Summary of the method: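 P450-Glo CYP2D6 system: proluciferin substrate converted by enzyme to luciferin, read by luminescence proportional to activity. Enzyme-substrate mix with compound 10 min at room temperature, then NADPH regeneration 1 h before detection reagent.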
# [16] = Primary qHTS for inhibitors of nuclear receptor binding SET domain protein 2 (NSD2) in an isogenic RCH-ACV NSD2 p.E1099K mutant (9B) (AID 1645876); details: activity change, negative = viability loss: at 44.9 µM (top of the series) unless noted; further: nearly all actives have a fitted effect of over 70% in size
# SKOV3 = test: Primary qHTS to identify gynecologic anti-cancer compounds using libraries of approved drugs and bioactive compounds (AID 1345084); details: Gynecologic cancer cell panel viability, ATPlite luminescence, 48 h; series mostly up to 57.5 µM; further: nearly all actives have a fitted effect of over 55% in size
# Summary of the method: as §2
# Tags describe the fitted curve by direction and shape.
# UniProt Q99828, sequence (Q99828 whole entry, looked up): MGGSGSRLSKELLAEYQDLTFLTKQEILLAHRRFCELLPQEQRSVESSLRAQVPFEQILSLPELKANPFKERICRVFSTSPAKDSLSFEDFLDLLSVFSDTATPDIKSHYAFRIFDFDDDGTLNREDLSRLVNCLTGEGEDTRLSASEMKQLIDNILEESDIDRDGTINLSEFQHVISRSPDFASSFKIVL
# UniProt P33261, sequence (P33261 whole entry, looked up, canonical isoform): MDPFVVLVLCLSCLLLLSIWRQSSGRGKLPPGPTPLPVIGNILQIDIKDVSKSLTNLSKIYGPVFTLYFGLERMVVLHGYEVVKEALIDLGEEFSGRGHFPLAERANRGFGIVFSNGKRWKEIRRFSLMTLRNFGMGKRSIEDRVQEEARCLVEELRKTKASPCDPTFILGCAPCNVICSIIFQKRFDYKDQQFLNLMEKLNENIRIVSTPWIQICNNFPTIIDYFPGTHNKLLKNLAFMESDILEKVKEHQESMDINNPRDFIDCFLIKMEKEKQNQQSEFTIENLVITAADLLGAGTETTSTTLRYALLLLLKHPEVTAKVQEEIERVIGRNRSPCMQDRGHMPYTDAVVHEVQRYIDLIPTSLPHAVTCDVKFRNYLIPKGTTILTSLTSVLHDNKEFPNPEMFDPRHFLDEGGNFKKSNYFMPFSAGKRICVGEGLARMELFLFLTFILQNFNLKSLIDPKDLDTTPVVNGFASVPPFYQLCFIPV
# UniProt Q14994, sequence (Q14994 whole entry, looked up): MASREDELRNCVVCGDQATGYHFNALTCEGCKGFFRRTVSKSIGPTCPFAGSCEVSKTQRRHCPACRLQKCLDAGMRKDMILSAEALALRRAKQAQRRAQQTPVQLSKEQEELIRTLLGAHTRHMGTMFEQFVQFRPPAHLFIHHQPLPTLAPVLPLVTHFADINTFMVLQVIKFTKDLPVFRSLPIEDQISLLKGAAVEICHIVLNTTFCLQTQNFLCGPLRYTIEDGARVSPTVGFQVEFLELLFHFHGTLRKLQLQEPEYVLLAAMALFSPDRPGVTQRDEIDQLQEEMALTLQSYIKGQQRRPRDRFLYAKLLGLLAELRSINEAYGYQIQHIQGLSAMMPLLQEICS
# UniProt P10635, sequence (P10635 whole entry, looked up): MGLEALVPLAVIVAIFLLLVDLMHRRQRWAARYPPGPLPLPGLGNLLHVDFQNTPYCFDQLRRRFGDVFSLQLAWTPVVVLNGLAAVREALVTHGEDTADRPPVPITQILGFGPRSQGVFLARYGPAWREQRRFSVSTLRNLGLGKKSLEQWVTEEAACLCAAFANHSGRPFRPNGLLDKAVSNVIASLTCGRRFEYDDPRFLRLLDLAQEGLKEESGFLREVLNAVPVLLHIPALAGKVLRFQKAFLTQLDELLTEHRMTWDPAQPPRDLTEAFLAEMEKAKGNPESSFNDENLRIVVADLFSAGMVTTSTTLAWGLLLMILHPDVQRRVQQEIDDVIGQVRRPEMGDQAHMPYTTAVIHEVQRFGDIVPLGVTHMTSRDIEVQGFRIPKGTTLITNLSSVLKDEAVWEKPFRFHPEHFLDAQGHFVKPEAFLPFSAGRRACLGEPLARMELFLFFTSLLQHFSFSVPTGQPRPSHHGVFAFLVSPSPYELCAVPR
structure (smiles),measurement,setting,value
O=C(O)c1ccccc1O,Potency,[1],inactive
same,Potency,[2],inactive
same,Potency,[3],inactive
same,Potency,[4],inactive
same,Potency,[5],inactive
same,Potency,[6],"inconclusive [inhibitor, partial curve, poor fit]"
same,Potency,[7],"inconclusive [inhibitor, full curve]"
same,Potency,[8],inactive
same,Potency,CASKI,inactive
same,Potency,[9],inactive
same,Potency,CP297,inconclusive [activator]
same,Potency,CP335,inactive
same,Potency,DFO2036,inactive
CC(=O)c1c(O)cc2c(c1C)C(=O)CC(O)C2 (configuration not stated),Potency,[10],inactive
same,Potency,[11],"inconclusive [inhibitor, partial curve]"
same,Potency,[12],inactive
same,Potency,[13],active: 10.6 µM
same,Potency,CASKI,inactive
same,Potency,PA-1,inactive
same,Potency,Tov-21-G,inactive
CC[C@H](NC(=O)c1c(O)c(-c2ccccc2)nc2ccccc12)c1ccccc1,Potency,[14],"inconclusive [inhibitor, partial curve]"
same,Potency,[15],"inconclusive [inhibitor, partial curve, poor fit]"
same,Potency,[16],inactive
same,Potency,[12],"inconclusive [inhibitor, partial curve, poor fit]"
same,Potency,CASKI,inactive
same,Potency,SKOV3,inactive
same,Potency,Tov-21-G,inactive
